# In PubChem BioAssay (NCATS):
# This list was built around the results that the source calls inconclusive (neither active nor inactive); the mix of calls is not that of the screen. For some assays here: Potencies of inconclusive entries are left out as doubtful fits. Active and inactive are the calls of the source. Unless noted, calls come from the whole dose curve; as a rule, active = well fitted curve in the direction sought with a large enough effect; inconclusive = small, poorly fitted or top-dose-only effect, or another doubt; inactive = no such curve, though single readings can be large; an effect the other way counts as inactive or inconclusive.
# Tests used:
# [1] = qHTS of pediatric cancer cell lines to identify multiple opportunities for drug repurposing: Primary screen for SJ-GBM2 cells (AID 1347091); note: potency is the fitted concentration of half-maximal effect
# In short: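 Viability measured as metabolically active cells via CellTiter-Glo luminescence following 48 hours of compound exposure, 11-point dilutions in confirmatory testing. 500-1,000 cells/well plated 5 hours before dosing; controls were DMSO and 2.3 µM bortezomib.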
# [2] = qHTS of pediatric cancer cell lines to identify multiple opportunities for drug repurposing: Primary screen for SK-N-MC cells (AID 1347093); conditions: SK-N-MC viability, CellTiter-Glo luminescence, 48 h; activity change, negative = cytotoxic: at 46 µM (top of the series); note: potency is the fitted concentration of half-maximal effect
# In short: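 Metabolically active cells were quantified by ATP-dependent luminescence (CellTiter-Glo, 15 min at room temperature) following 48 h treatment. Cells had been plated at 500-1,000 per well and settled for 5 h beforehand.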
# [3] = qHTS of pediatric cancer cell lines to identify multiple opportunities for drug repurposing: Primary screen for Saos-2 cells (AID 1347097); conditions: Saos-2 viability, CellTiter-Glo ATP luminescence, 48 h; activity change, negative = cytotoxic: at 46 µM (top of the series); note: potency is the fitted concentration of half-maximal effect; nearly all actives have a fitted effect of over 40% in size
# In short: (§1)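 ATP-based luminescence (CellTiter-Glo) quantifies viability after a 48-hour exposure. Compounds are dosed across 8 or 11 final concentrations; DMSO and 2.3 µM bortezomib serve as controls.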
# [4] = qHTS of pediatric cancer cell lines to identify multiple opportunities for drug repurposing: Primary screen for SK-N-SH cells (AID 1347098); conditions: SK-N-SH viability, CellTiter-Glo luminescence, 48 h; activity change, negative = cytotoxic: at 57 µM (top of the series); note: nearly all actives have a fitted effect of over 65% in size; note: potency is the fitted concentration of half-maximal effect;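 for activity change, negative = cytotoxic: DMSO served as neutral control and bortezomib at 2.3 µM as positive control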
# In short: (§2)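 Cells (500-1,000/well) rested 5 h, then received compounds for 48 h; metabolically active cells were measured by CellTiter-Glo luminescence. Final concentrations spanned up to 46 µM (MIPE, 11-point) or 0.59 nM-46 µM (NPC, 8-point) in primary screens, 11-point in follow-ups.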
# [5] = qHTS of pediatric cancer cell lines to identify multiple opportunities for drug repurposing: Primary screen for BT-12 cells (AID 1347101); note: potency is the fitted concentration of half-maximal effect; nearly all actives have a fitted effect of over 25% in size
# In short: as §2
# [6] = A High-Content qHTS Against Drug Library for the Identification of Small Molecules that Inhibit DYT1 Early Onset Primary Dystonia-Associated Cell Pathology (AID 1645839; calls by dose curve; note: potency is the fitted concentration of half-maximal effect)
# In short: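 Cells were seeded and left for 24 h, then dosed with compound alongside tetracycline induction of mutant EGFP-TorsinA. They were incubated for 48 h, fixed in 4% paraformaldehyde, permeabilized and imaged for mislocalization (%pathology) and cell count.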
# HeLa = test: Primary qHTS to identify gynecologic anti-cancer compounds using libraries of approved drugs and bioactive compounds (AID 1345084); conditions: Gynecologic cancer cell panel viability, ATPlite luminescence, 48 h; series mostly up to 57.5 µM; note: nearly all actives have a fitted effect of over 55% in size; note: potency is the fitted concentration of half-maximal effect
# In short: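 Cells, 1,000 per well, were allowed to settle for 16 h at 37 C before compound addition. Five concentrations were tested for 48 h, and viability was read by ATPlite luminescence after 15 min at room temperature.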
# [7] = qHTS of pediatric cancer cell lines to identify multiple opportunities for drug repurposing: Primary screen for NB1643 cells (AID 1347099); note: potency is the fitted concentration of half-maximal effect; nearly all actives have a fitted effect of over 50% in size
# In short: as §1
# [8] = system: Zika virus NS2B-NS3 protease (unlinked complex); test: Primary screen GU Rhodamine qHTS for Zika virus inhibitors: Unlinked NS2B-NS3 protease assay (AID 1347159); note: potency is the fitted concentration of half-maximal effect; nearly all actives have a fitted effect of over 60% in size
# In short: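 Percent inhibition came from the 15-min rise in Rhodamine110 fluorescence (1.5 microM substrate, ~15% conversion), normalized to no-inhibitor and no-enzyme wells and Hill-fitted. Unlinked protease, 25 nM, pH 8.0 Tris buffer; compounds up to 114 microM, 15-min preincubation.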
# [9] = system: Zika virus NS2B-NS3 protease (linked construct); test: Primary screen NINDS Rhodamine qHTS for Zika virus inhibitors (AID 1347160); note: nearly all actives have a fitted effect of over 55% in size; note: potency is the fitted concentration of half-maximal effect
# In short: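 Rhodamine110-peptide cleavage (1.5 µM substrate) by 25 nM linked NS2B-NS3 enzyme at pH 8.0 (Tris, Tween 20), after 15 min RT preincubation with compounds; 15-min fluorescence change normalized to controls and Hill-fitted.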
# [10] = molecular target: Cytochrome P450 2D6 (Homo sapiens) (UniProt P10635); test: Cytochrome P450 family 2 subfamily D member 6 (CYP2D6) small molecule antagonists: luciferase biochemical (cell-free) qHTS assay (AID 1645840; active = well fitted curve in the direction sought with a large enough effect in the repeat runs; inconclusive = weak or mixed curves; inactive = no such curve, though single readings can be large; an effect the other way counts as inactive or inconclusive; note: nearly all actives have a fitted effect of over 55% in size; note: potency is the fitted concentration of half-maximal effect)
# Chain of UniProt P10635 (P10635 whole entry, looked up): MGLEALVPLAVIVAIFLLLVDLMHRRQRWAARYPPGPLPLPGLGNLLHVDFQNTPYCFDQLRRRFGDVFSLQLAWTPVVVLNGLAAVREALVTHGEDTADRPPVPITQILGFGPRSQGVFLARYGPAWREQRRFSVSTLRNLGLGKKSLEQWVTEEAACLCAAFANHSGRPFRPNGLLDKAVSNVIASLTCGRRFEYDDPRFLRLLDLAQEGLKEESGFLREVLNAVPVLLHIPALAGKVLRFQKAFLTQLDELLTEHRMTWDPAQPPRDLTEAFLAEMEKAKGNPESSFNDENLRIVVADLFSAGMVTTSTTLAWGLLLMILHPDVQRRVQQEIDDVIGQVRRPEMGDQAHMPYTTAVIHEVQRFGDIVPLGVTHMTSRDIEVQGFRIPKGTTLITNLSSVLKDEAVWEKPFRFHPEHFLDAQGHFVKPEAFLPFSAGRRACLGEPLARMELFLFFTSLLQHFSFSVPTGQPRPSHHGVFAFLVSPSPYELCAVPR
# In short: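 P450-Glo CYP2D6 system: proluciferin substrate converted by enzyme to luciferin, read by luminescence proportional to activity. Enzyme-substrate mix with compound 10 min at room temperature, then NADPH regeneration 1 h before detection reagent.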
# MKL-2 = test: qHTS assay to identify novel small-molecules to repurpose for Merkel cell carcinoma treatment (AID 1296009); conditions: MCC and control cell lines, CellTiter-Glo viability, 72 h; activity change, negative = cytotoxicity: at 46 µM (top of the series); note: potency is the fitted concentration of half-maximal effect; nearly all actives have a fitted effect of over 60% in size
# In short: (§3)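 CellTiter-Glo luminescence after 72 hr compound exposure at 37 degree celsius gave cell viability. Libraries NPC and MIPE were run as 8- and 11-point dose responses; RLUs normalized to DMSO (negative) and no-cell (cytotoxicity) controls.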
# UISO = test: as above; conditions: MCC and control cell lines, CellTiter-Glo viability, 72 h; activity change, negative = cytotoxicity: at 46 µM (top of the series)
# In short: as §3
# WaGa = test: as above; conditions: MCC and control cell lines, CellTiter-Glo viability, 72 h; series mostly up to 46 µM
# In short: as §3
# [11] = molecular target: Cytochrome P450 2C9 (Homo sapiens) (UniProt P11712); test: Cytochrome P450 family 2 subfamily C member 9 (CYP2C9) small molecule antagonists: luciferase biochemical (cell-free) qHTS assay (AID 1645842; active = well fitted curve in the direction sought with a large enough effect in the repeat runs; inconclusive = weak or mixed curves; inactive = no such curve, though single readings can be large; an effect the other way counts as inactive or inconclusive; note: nearly all actives have a fitted effect of over 55% in size; note: potency is the fitted concentration of half-maximal effect)
# Chain of UniProt P11712 (P11712 whole entry, looked up): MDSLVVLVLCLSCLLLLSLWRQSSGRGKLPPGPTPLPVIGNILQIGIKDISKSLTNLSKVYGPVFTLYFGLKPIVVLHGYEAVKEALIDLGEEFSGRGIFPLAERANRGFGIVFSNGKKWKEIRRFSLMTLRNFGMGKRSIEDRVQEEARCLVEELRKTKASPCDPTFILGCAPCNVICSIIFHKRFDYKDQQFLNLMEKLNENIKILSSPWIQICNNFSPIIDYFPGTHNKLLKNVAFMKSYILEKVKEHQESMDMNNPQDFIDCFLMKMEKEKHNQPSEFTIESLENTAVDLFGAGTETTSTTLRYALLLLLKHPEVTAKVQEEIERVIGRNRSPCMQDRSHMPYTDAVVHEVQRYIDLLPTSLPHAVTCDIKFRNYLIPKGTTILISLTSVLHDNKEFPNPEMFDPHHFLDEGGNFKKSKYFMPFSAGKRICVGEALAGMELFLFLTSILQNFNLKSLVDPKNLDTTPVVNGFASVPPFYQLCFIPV
# In short: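 P450-Glo CYP2C9 system: proluciferin substrate with enzyme in mix containing 0.4% BSA, 10 min at room temperature, then NADPH regeneration solution added and incubated 1 h at 37C. Detection reagent stopped reaction; luminescence read after 20 min as RLU.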
# [12] = molecular target: Cytochrome P450 3A4 (Homo sapiens) (UniProt P08684); test: Cytochrome P450 family 3 subfamily A member 4 (CYP3A4) small molecule antagonists: luciferase qHTS assay (AID 1645841; active = well fitted curve in the direction sought with a large enough effect in the repeat runs; inconclusive = weak or mixed curves; inactive = no such curve, though single readings can be large; an effect the other way counts as inactive or inconclusive; note: nearly all actives have a fitted effect of over 45% in size; note: potency is the fitted concentration of half-maximal effect)
# Chain of UniProt P08684 (P08684 whole entry, looked up): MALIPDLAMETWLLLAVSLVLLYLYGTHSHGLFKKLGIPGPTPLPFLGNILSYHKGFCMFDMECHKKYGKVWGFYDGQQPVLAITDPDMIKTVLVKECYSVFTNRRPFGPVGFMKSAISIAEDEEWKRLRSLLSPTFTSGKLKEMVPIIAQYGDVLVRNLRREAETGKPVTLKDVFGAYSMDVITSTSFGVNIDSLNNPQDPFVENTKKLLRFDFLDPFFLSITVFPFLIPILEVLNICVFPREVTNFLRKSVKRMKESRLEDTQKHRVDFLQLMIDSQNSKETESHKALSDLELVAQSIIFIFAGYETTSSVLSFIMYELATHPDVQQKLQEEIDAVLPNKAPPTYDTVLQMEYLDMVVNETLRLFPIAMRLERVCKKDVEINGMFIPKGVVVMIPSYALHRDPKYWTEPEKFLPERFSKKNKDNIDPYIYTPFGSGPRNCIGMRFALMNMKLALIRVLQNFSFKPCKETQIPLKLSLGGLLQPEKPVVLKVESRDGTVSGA
# In short: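 P450-Glo CYP3A4 enzyme with proluciferin substrate preincubated 10 min with compound at room temperature, then NADPH regeneration 1 h. Luciferin detection reagent added for 20 min; luminescence recorded. Ketoconazole positive control.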
# [13] = Primary redox qHTS assay for identification of artifact compounds. (AID 1845223); note: potency is the fitted concentration of half-maximal effect
# In short: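 Redox-cycling detection via DTT (250 uM final) oxidation coupled to Amplex Red (25 uM)/HRP (250 mU/mL) in HBSS. 15 min preincubation plus 30 min after DTT, room temperature. Ex/Em 525/598 nm; 4-parameter Hill fit against DMSO and 10 uM DA3003.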
# [14] = molecular target: Phospholipid hydroperoxide glutathione peroxidase GPX4 (Homo sapiens) (UniProt P36969); test: Primary qHTS Assay for Inhibitors of Recombinant Selenoprotein Glutathione Peroxidase 4 (GPX4) (AID 1845192); note: nearly all actives have a fitted effect of over 65% in size
# Chain of UniProt P36969 (P36969 whole entry, looked up): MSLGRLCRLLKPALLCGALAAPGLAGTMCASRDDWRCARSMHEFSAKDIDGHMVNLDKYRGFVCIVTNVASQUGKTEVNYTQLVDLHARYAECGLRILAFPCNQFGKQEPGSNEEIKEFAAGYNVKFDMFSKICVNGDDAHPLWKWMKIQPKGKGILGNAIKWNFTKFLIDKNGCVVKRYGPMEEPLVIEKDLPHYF
# In short: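 Steps: GPX4 plus compound, 30 min RT; add GR/GSH/NADPH master mix; start with cumene hydroperoxide; read 340/450 nm fluorescence at 0 and 15 min. Finals were 200 nM GPX4, 1 mM GSH, 0.5 mM CHP, 0.5 mM NADPH, 100 nM GR.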
# [15] = qHTS of pediatric cancer cell lines to identify multiple opportunities for drug repurposing: Primary screen for OHS-50 cells (AID 1347103); note: nearly all actives have a fitted effect of over 40% in size; note: potency is the fitted concentration of half-maximal effect
# In short: as §2
# [16] = Primary qHTS for small molecule stabilizers of the endoplasmic reticulum resident proteome: Secreted ER Calcium Modulated Protein (SERCaMP) assay (AID 1508630); conditions: SH-SY5Y GLuc-SERCaMP (Gaussia luciferase released on ER calcium loss) secretion, thapsigargin, luminescence; series mostly up to 38.4 µM; note: potency is the fitted concentration of half-maximal effect
# In short: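 The SH-SY5Y reporter protocol was run at 3 concentrations up to 38.3 uM (primary) or 11 concentrations (follow-up): 16 h compound, 100 nM thapsigargin for 4 h, then extracellular luciferase luminescence.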
# Tags give direction and shape of the fitted curve.
compound,measurement,setting,value
C#C[C@]1(O)CC[C@H]2[C@@H]3CCC4=Cc5oncc5C[C@]4(C)[C@H]3CC[C@@]21C,Potency,[1],"inconclusive [cytotoxic, single point]"
same,Potency,[2],"inconclusive [cytotoxic, single point]"
same,Potency,[3],"inconclusive [cytotoxic, partial curve]"
same,Potency,[4],inactive
same,Potency,[5],"inconclusive [cytotoxic, single point]"
same,Potency,[6],"inconclusive [inhibitor, single point]"
same,Potency,HeLa,active: 0.794 µM
C=CC(=O)Nc1ccc2ncnc(Nc3ccc(OCc4cccc(F)c4)c(Cl)c3)c2c1,Potency,[3],active: 0.0296 µM
same,Potency,[4],active: 0.171 µM
same,Potency,[7],active: 0.0743 µM
same,Potency,[8],active: 44.7 µM
same,Potency,[9],"inconclusive [inhibitor, partial curve]"
same,Potency,[10],inactive
same,Potency,MKL-2,"inconclusive [inhibitor, full curve]"
same,Potency,UISO,"inconclusive [inhibitor, full curve]"
same,Potency,WaGa,active: 0.0332 µM
same,Potency,HeLa,inactive
CCCCn1ccc(N2CCC(c3ccccc3)CC2)c(Cl)c1=O,Potency,[8],"inconclusive [inhibitor, full curve]"
same,Potency,[9],inactive
same,Potency,HeLa,"inconclusive [cytotoxic, single point]"
O=C1NCCN1CCN1CCC(c2cn(-c3ccc(F)cc3)c3ccc(Cl)cc23)CC1,Potency,[7],"inconclusive [cytotoxic, single point]"
same,Potency,[5],active: 8.71 µM
same,Potency,[6],active: 11.2 µM
same,Potency,[11],"inconclusive [inhibitor, single point]"
same,Potency,UISO,"inconclusive [inhibitor, single point]"
same,Potency,HeLa,"inconclusive [cytotoxic, single point]"
O=C(NC[C@H](O)CN1CCc2ccccc2C1)c1cc(NC2COC2)ncn1,Potency,[10],"inconclusive [inhibitor, partial curve]"
same,Potency,[12],inactive
same,Potency,[13],"inconclusive [activator, single point]"
COc1cc(/C=C/C(=O)NCCn2c(C(F)(F)F)cc3ccccc32)cc(OC)c1OC,Potency,[14],inactive
C=C(C)C1CCC2(C(=O)O)CCC3(C)C(CCC4C5(C)C(C=O)C(O)C(C)(C)C5CCC43C)C12 (centres undefined),Potency,[8],"inconclusive [inhibitor, full curve, poor fit]"
COc1cc2ncnc(Nc3ccc(O)c(Br)c3)c2cc1OC,Potency,[10],"inconclusive [inhibitor, single point]"
same,Potency,[12],"inconclusive [falling, single point]"
C/C(=C1\CCOC(=O)S1)N(C=O)Cc1cnc(C)nc1N,Potency,[15],inactive
same,Potency,[10],"inconclusive [inhibitor, partial curve]"
same,Potency,[12],"inconclusive [falling, partial curve, poor fit]"
same,Potency,[11],inactive
COc1ccc2cc1Oc1ccc(cc1)C[C@H]1c3c(cc4c(c3Oc3cc5c(cc3OC)CCN(C)[C@@H]5C2)OCO4)CCN1C,Potency,[1],"inconclusive [cytotoxic, single point]"
same,Potency,[3],"inconclusive [cytotoxic, single point]"
same,Potency,[5],active: 24.6 µM
same,Potency,[6],"inconclusive [inhibitor, partial curve]"
same,Potency,[10],active: 17.4 µM
same,Potency,[11],"inconclusive [inhibitor, single point]"
same,Potency,MKL-2,active: 3.35 µM
same,Potency,UISO,"inconclusive [inhibitor, single point]"
same,Potency,WaGa,active: 18.8 µM
same,Potency,HeLa,"inconclusive [cytotoxic, partial curve, poor fit]"
O=C(C(c1ccccc1)c1ccccc1)N1CCN(CC(O)COc2cccc3ncccc23)CC1 (centres undefined),Potency,[9],inactive
same,Potency,[10],"inconclusive [inhibitor, single point]"
same,Potency,[13],"inconclusive [activator, full curve, poor fit]"
Cc1ccc(N2CCN(S(=O)(=O)N3CCCCC3)CC2)c(C)c1,Potency,[10],"inconclusive [inhibitor, single point]"
C/C=C(\C)C(=O)O[C@H]1C[C@](C)(O)[C@H]2CC=C(C)[C@H]2[C@@H]2OC(=O)[C@H](C)[C@H]21,Potency,[9],"inconclusive [inhibitor, partial curve, poor fit]"
COc1cccc(NCCC2(c3ccccc3)CC(C)(C)OC(C)(C)C2)c1,Potency,[13],inactive
CCCCCCc1ccc(O)cc1O,Potency,[1],"inconclusive [cytotoxic, partial curve]"
same,Potency,[3],"inconclusive [cytotoxic, single point]"
same,Potency,[4],"inconclusive [cytotoxic, partial curve]"
same,Potency,[15],"inconclusive [cytotoxic, single point]"
same,Potency,[16],"inconclusive [inhibitor, single point]"
same,Potency,[6],"inconclusive [inhibitor, single point]"
